Measurements as given in PubChem BioAssay AID2147 (National Center for Advancing Translational Sciences (NCATS), 2009).
“And” between values parts separate entries of the source, which are not always exact repeats. Equal entries are not always repeated. The campaign covered roughly 230,000 compounds. About 3,600 (1.6%) were called active. Inconclusive results, whose numbers are uncertain, are shown with a selection of clear calls. The call rests on the fitted dose curve; in most records, active means well fitted inhibition curve with a large enough effect (not every such curve was filed as active); inconclusive means small, poorly fitted or top-dose-only effect, or another doubt; inactive means no such curve, though single readings can be large or run the other way. Potencies of inconclusive entries are doubtful fits and often do not repeat.

target: Lysine-specific demethylase 4E (Homo sapiens) (UniProt B2RXH2); assay: qHTS Assay for Inhibitors of Human Jumonji Domain Containing 2E (JMJD2E); conditions: JMJD2E catalytic domain, FDH-coupled NADH fluorescence (FDH is formaldehyde dehydrogenase); series mostly up to 57.1 µM
Further: nearly all actives have a fitted effect of over 50% in size.
Potency means the concentration at half of the fitted maximal effect; tags describe the fitted curve by direction and shape.
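Wherever activity change, negative = inhibition is given: 0% = wells with enzyme and -100% = buffer wells without enzyme.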

Sequence of UniProt B2RXH2 (B2RXH2 whole entry, looked up, the tested form may be a part): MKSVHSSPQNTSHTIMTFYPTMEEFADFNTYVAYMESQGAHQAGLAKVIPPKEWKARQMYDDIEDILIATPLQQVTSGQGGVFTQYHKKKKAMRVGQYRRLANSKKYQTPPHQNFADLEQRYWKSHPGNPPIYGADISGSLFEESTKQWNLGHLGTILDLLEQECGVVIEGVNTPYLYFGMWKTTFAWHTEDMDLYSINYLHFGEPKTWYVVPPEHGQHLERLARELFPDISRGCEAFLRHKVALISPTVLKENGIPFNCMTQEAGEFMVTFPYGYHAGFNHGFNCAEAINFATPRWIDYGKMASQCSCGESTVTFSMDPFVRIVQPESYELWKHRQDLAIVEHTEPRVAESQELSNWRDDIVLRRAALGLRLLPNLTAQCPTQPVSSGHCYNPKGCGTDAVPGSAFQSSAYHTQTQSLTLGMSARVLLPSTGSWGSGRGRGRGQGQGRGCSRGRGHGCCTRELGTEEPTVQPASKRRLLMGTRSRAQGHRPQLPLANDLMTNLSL

Structure (SMILES) | Potency | activity change, negative = inhibition
CCOC(=O)CNC(=O)CSc1ccc2nnc(-c3cccnc3)n2n1 | inconclusive: 31.6 µM [inhibitor, partial curve] | 
CCN(CC)S(=O)(=O)c1ccc2oc(C(=O)N3CCOCC3)c(C)c2c1 | inconclusive: 39.8 µM [inhibitor, single point] | 
Cc1cccc(-c2nnc(SCCOc3ccc4c(C)cc(=O)oc4c3)o2)c1 | inconclusive: 4.47 µM [inhibitor, full curve] | 
O=C(CSc1ncnc2c1nnn2Cc1ccc(F)cc1)NC1CCCC1 | inconclusive: 8.91 µM [inhibitor, single point] | 
COc1ccc([N+](=O)[O-])c(S(=O)(=O)c2ccc(Cl)cc2)n1 | inactive | 
COc1cc(NC(=O)c2cncc(-c3ccc(C#N)cc3)c2)cc(C(=O)Nc2cccc(C(F)(F)F)c2)c1 | inconclusive: 31.6 µM [inhibitor, single point] | 
CCOC(=O)c1c(CC(C)C)csc1NC(=O)C(C)C | inactive | 
COc1ccc(Cl)cc1NC(=O)NC(C)C | inactive | 
COc1ccccc1NC(=O)C1=C(C)NC2=C(C(=O)CCC2)C1c1ccc(C)o1 (stereo not drawn) | inconclusive: 39.8 µM [inhibitor, single point] | 
COc1cc(CN2CCC(C(=O)N3CCC(C)CC3)CC2)cc(Br)c1O | inconclusive: 31.6 µM [inhibitor, single point] | 
Cc1cc(C)n(-c2nc(NCC(C)O)c3c4c(sc3n2)COC(C)(C)C4)n1 (stereo not drawn) | inconclusive: 28.2 µM [inhibitor, single point] | 
O=C(CN1CCN(CCN2C(=O)c3cccc4cccc(c34)C2=O)CC1)c1ccc(F)cc1 | inconclusive: 31.6 µM [inhibitor, partial curve] | 
O=C(CCCCCn1c(=O)[nH]c2ccccc2c1=O)NCCCN1CCN(c2ccccc2F)CC1 | inactive | 
C/C(=N/NC(=O)c1ccncc1)C1=C(O)CC(C)(C)CC1=O | active: 14.1 µM | 
Cc1cc(C)c2c(C)c(C(=O)NCc3ccc(S(N)(=O)=O)cc3)oc2c1 | inconclusive: 35.5 µM [inhibitor, single point] | 
COc1ccccc1-c1cc(C(=O)NC(C)C)no1 | inconclusive: 39.8 µM [inhibitor, single point] | 
CCC(C)NC(=O)/C=C1\Sc2ccccc2NC1=O (stereo not drawn) | inconclusive: 35.5 µM [inhibitor, single point] | 
O=C(O)CSc1nnc(CNc2ccc(Cl)cc2)n1Cc1ccccc1 | inconclusive: 39.8 µM [inhibitor, single point] | 
COC(=O)c1cc(NC(=O)c2cc(-c3ccc(C(F)(F)F)cc3)oc2C(F)(F)F)ccc1N1CCOCC1 | inconclusive: 39.8 µM [inhibitor, single point] | 
Cc1nc(N2CCCCC2)c2ccsc2n1 | inconclusive: 39.8 µM [inhibitor, single point] | 
O=C(Cn1c(=O)c(=O)n(Cc2ccccc2)c2ccc(Cl)cc21)Nc1cccc(F)c1 | inconclusive: 17.8 µM [inhibitor, partial curve] | 
CCOC(=O)c1nn(-c2cccc(Cl)c2)c2nc(CC(C)C)c(C#N)c(=O)n12 | inconclusive: 35.5 µM [inhibitor, partial curve] | 
Cc1nc(N2CCCCC2)sc1C(=O)c1ccc(SCCO)c([N+](=O)[O-])c1 | inactive | 

Structure (SMILES) | Potency | activity change, negative = inhibition
COc1ccc(C2C(=O)c3ccccc3C2=O)cc1OC | inactive | 
COc1ccc2c(c1OC)C(=O)N(c1ccccn1)C2 | inconclusive: 25.1 µM [inhibitor, partial curve] | 
CCc1cc2c(NCCC(=O)O)nc(C)nc2s1 | inconclusive: 31.6 µM [inhibitor, partial curve] | 
O=C(NC12CC3CC(CC(C3)C1)C2)c1cc([N+](=O)[O-])ccc1N1CCOCC1 | inactive | 
COc1ccc(-c2ccc(C#N)c(SCC(=O)NCc3ccco3)n2)cc1OC | inconclusive: 3.55 µM [inhibitor, full curve] | 
CC(C)NC(=O)COC(=O)c1cc(=O)[nH]c2ccccc12 | inconclusive: 28.2 µM [inhibitor, partial curve] | 
Cc1cc(=O)oc2cc(OC(C)C(=O)N3CCOCC3)ccc12 (stereo not drawn) | inconclusive: 31.6 µM [inhibitor, partial curve] | 
CCCCN(CC)c1nc(-c2ccncc2)nc2ccccc12 | inconclusive: 25.1 µM [inhibitor, partial curve] | 
COC(=O)c1cccc(C23CC4(C2)[C@H](CN(Cc2ccc(-c5ccccc5)cc2)[C@@H]4c2ccccc2)C3c2ccccc2)c1 (stereo partly drawn) | inconclusive: 39.8 µM [inhibitor, single point] and inconclusive: 31.6 µM [inhibitor, single point] | 
COc1cccc(N2CCN(C(=O)C3C4C=CC5(CN(Cc6ccccc6Cl)C(=O)C35)O4)CC2)c1 (stereo not drawn) | inconclusive: 2.82 µM [inhibitor, partial curve] | 
COc1ccc(-c2ccc(-c3noc(C4CCCCC4)n3)c(OC)n2)cc1 | inconclusive: 28.2 µM [inhibitor, partial curve] | 
COc1cc(CNc2ccccc2SC)ccc1O | inconclusive: 31.6 µM [inhibitor, single point] | 
COc1ccc(N2CCN(C(=O)NC3CC(=O)N(c4ccc(OC)cc4)C3)CC2)cc1 (stereo not drawn) | inconclusive: 39.8 µM [inhibitor, single point] | 
COc1cc(OC)c(C(=O)COc2ncnc3ccccc23)c(OC)c1 | inactive | 
O=C(/C=C/c1ccc(Br)o1)Nc1nccs1 | inconclusive: 12.6 µM [inhibitor, partial curve] | 
O=C(Nc1ccc(Cl)c(S(=O)(=O)N2CCOCC2)c1)c1ccccc1-c1ccc(C(F)(F)F)cc1 | inconclusive: 14.1 µM [inhibitor, partial curve] | 
O=[N+]([O-])c1cc(Cl)c(O)c2ncccc12 | inconclusive: 31.6 µM [inhibitor, single point] | 
CCOCCCNC(=S)NCCNc1nc2c(C)cccc2cc1C#N | inactive | 
CCOC(=O)c1c(/N=C/N(C)C)sc(C=O)c1-c1ccccc1 | inconclusive: 31.6 µM [inhibitor, partial curve] | 
CCCCN(CC)S(=O)(=O)c1ccc(C(=O)Nc2nnc(CSC)o2)cc1 | inconclusive: 39.8 µM [inhibitor, single point] | 
O=C1NC(c2cccs2)Nc2sc3c(c21)CCCC3 (stereo not drawn) | inconclusive: 35.5 µM [inhibitor, single point] | 
O=C(CSc1nc2c([nH]c3ccccc32)c(=O)n1-c1cccc(Cl)c1)N1CCOCC1 | inconclusive: 39.8 µM [inhibitor, single point] | 
COc1ccc(OC)c(C(=O)c2coc3ccc(O)cc23)c1 | inconclusive: 31.6 µM [inhibitor, single point] | 

Structure (SMILES) | Potency | activity change, negative = inhibition
CC(C)(C)NC(=O)C(=O)NNC(=O)c1cccc(F)c1 | inactive | 
Cc1cccc(NC(=O)c2sc3nc4c(c(-c5cccs5)c3c2N)CN(C)CC4)c1 | inactive | 
O=C(Nc1ccc2nc3n(c(=O)c2c1)CCCCC3)c1ccccn1 | inactive | 
CC1(C)CC(=O)C2=C(C1)N(c1cccc(O)c1)C1=C(C2)C(=O)CC(C)(C)C1 | inconclusive: 12.6 µM [inhibitor, partial curve] | 
COc1ccc(OC)c(S(=O)(=O)N2CCC(C(=O)NCCC3=CCCCC3)CC2)c1 | inactive | 
C=CCNC(=O)N1CCc2nc(-c3ccccc3)c3c(c2C1)CO[C@@H](C)C3 |  | inactive: -0.423% [at 11.4 µM]
COc1ccc(C(=O)N[C@H](C(=O)OCC(=O)NC(=O)c2cccn2C)C(C)C)cc1 | inactive | 
O=C(Nc1ccc(C(=O)NC2CCCCC2)cc1)c1cncc(Br)c1 | inconclusive: 25.1 µM [inhibitor, partial curve] | 
O=[N+]([O-])c1cc(F)c2cccnc2c1O | inactive | 
Cc1ccc2nc(-c3ccc4c(c3)NC(=O)CO4)cn2c1 | inconclusive: 14.1 µM [inhibitor, partial curve] | 
COc1ccccc1/C=C/C(=O)Nc1ccc2c(c1)OCCO2 | inactive | 
O=C(NCC1CCCO1)/C(=C\c1ccc(Cl)cc1)NC(=O)c1ccccc1 (stereo not drawn) | inconclusive: 35.5 µM [inhibitor, single point] | 
Cc1cccc(OCc2nnc(SCC(=O)Nc3cccc(C(=O)N4CCOCC4)c3)n2C)c1 | inactive | 
COc1ccc(-c2ccc(C(=S)N3CCN(C(C)=O)CC3)o2)cc1 | inconclusive: 31.6 µM [inhibitor, single point] | 
CCOc1ccc(/C=N/NC(=O)Cc2csc(Nc3cccc(C(F)(F)F)c3)n2)cc1 | inactive | 
COc1ccc2nc(NC(=O)c3ccc(Br)s3)sc2c1 | inconclusive: 35.5 µM [inhibitor, single point] | 
CCN(CC)S(=O)(=O)c1ccc(NC(=O)c2cc(=O)[nH]c3ccccc23)cc1 | inconclusive: 39.8 µM [inhibitor, single point] | 
O=C1c2cccc3cccc(c23)C(=O)N1CCCN1CCN(c2ccc(F)cc2)CC1 | inconclusive: 35.5 µM [inhibitor, single point] | 
O=C(NC(Cc1ccccc1)C(=O)O)/C(=C/c1ccc(F)cc1)NC(=O)c1ccccc1 (stereo not drawn) | inactive | 
COc1cc(/C=N/NC(=O)c2ccccc2)ccc1O | inconclusive: 39.8 µM [inhibitor, single point] | 
COc1ccc(OC)c(C2=NOC(C(=O)Nc3cc(C)on3)C2)c1 (stereo not drawn) | inconclusive: 22.4 µM [inhibitor, single point] | 
O=C(/C=C/c1ccco1)NC(=S)Nc1ccccn1 | inconclusive: 39.8 µM [inhibitor, single point] | 
